These are yes or no findings as the source states them, for the method shown. In cells and extracts the contact can be indirect. Some binding calls cover weakened binding; strength is not graded here.

By UniProt entry, the sequences of proteins in these tests, tags left out. Where a name states a change or a piece, a line headed by the entry shows the natural chain unless it says otherwise.
UniProt Q9UM11: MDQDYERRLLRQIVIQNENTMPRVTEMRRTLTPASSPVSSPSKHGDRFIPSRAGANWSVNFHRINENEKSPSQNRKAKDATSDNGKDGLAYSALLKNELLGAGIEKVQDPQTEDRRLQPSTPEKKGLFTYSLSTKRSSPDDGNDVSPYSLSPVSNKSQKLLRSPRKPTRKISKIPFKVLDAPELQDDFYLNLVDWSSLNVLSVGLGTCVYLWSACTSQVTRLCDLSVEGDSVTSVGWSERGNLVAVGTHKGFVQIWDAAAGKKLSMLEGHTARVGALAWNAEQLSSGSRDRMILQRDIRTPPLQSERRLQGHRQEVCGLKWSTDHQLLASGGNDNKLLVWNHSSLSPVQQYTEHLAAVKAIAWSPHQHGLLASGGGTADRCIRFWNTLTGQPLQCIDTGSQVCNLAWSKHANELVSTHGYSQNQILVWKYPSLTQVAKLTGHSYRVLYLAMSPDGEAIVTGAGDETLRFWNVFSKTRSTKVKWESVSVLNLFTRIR
UniProt O14980: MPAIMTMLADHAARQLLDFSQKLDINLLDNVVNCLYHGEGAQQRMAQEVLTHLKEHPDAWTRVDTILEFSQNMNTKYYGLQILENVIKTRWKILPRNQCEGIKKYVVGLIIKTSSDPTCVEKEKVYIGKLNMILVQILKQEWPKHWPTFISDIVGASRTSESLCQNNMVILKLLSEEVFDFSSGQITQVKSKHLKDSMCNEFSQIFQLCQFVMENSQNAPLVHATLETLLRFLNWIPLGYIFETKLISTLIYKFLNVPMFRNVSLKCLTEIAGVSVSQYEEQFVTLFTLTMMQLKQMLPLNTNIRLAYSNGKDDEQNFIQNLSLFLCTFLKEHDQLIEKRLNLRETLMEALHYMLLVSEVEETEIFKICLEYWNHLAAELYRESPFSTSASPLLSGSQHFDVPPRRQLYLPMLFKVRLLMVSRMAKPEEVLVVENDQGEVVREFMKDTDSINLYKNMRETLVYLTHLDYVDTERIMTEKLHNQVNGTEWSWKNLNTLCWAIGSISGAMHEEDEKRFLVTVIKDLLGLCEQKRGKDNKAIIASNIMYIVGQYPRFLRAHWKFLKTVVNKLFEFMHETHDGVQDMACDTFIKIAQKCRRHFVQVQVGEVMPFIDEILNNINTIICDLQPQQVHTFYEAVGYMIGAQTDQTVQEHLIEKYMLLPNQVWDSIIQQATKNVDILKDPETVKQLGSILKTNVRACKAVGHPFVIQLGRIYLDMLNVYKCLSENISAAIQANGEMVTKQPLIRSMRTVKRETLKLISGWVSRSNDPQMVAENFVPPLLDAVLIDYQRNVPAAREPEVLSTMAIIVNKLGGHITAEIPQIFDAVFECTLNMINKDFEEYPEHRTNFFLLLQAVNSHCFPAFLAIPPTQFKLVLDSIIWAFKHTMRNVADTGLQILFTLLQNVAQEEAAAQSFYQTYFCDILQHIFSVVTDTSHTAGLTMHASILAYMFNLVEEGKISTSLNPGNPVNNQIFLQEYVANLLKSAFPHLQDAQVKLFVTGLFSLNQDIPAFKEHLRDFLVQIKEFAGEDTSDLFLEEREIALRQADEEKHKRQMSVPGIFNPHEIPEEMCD
UniProt P07947: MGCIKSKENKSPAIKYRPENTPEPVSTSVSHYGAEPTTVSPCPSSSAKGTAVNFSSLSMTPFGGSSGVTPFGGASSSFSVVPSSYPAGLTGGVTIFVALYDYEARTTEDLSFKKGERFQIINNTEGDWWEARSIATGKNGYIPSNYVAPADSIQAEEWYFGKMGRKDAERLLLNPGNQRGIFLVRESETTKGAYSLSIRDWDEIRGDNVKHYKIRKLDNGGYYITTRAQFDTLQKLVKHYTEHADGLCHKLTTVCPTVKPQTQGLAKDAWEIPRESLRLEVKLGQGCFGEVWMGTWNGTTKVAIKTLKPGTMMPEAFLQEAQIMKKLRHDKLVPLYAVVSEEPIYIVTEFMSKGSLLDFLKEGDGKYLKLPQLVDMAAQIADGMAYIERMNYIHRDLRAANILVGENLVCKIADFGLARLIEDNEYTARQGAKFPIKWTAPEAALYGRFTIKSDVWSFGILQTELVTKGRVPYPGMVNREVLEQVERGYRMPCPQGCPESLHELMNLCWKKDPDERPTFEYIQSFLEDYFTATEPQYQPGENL
UniProt P06241: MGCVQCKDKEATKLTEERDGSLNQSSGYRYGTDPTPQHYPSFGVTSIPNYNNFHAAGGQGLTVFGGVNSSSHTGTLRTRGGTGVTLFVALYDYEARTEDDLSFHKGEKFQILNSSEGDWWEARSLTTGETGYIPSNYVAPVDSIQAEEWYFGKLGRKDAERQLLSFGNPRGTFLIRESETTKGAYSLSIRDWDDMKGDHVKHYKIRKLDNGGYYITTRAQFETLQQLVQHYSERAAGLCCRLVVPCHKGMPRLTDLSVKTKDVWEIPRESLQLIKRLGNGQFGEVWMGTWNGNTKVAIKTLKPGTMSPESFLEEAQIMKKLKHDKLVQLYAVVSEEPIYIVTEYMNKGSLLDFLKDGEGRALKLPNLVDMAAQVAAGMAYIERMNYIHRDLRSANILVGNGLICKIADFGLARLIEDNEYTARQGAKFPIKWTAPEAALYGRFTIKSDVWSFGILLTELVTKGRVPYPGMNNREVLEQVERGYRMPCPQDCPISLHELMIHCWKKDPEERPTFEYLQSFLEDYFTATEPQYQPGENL

One test concerns the target HA-Cdh1 (human) (UniProt Q9UM11). Put plainly: co-IP; 293T cells co-transfected with Flag- and HA-tagged constructs; lysis in EBC buffer (50 mM Tris pH 7.5, 120 mM NaCl, 0.5% NP-40); agarose-conjugated antibody 3-4 h at 4 °C; four washes with NETN buffer; immunoblot. A general note: Immunoblotting shows a protein as a band on a membrane.
The target in test [1] is HA-Y148E-Cdh1 (stable in shCdh1-MDA-MB-231) (human) (UniProt Q9UM11). The experiment in a line: co-IP; anti-HA IP from shCdh1-MDA-MB-231 cells stably expressing HA-Cdh1 variants; endogenous partners detected by immunoblot.
Test [2] addresses endogenous Cdh1 (human (endogenous in MCF7, MDA-MB-231, SUM159PT)) (UniProt Q9UM11). The experiment in a line: co-IP; endogenous proteins; anti-Cdh1 IP from lysates of MCF7, MDA-MB-231 and SUM159PT cells; cells in part treated with PDGF, sgSrc, dasatinib, PD0325901 or saracatinib.
The next test concerns the target Flag-CRM1 (human) (UniProt O14980). Put plainly: co-IP; 293T cells co-transfected with Flag- and HA-tagged constructs; lysis in EBC buffer (50 mM Tris pH 7.5, 120 mM NaCl, 0.5% NP-40); agarose-conjugated antibody 3-4 h at 4 °C; four washes with NETN buffer; immunoblot.

As to Yes (from UniProt P07947 1-543), in the test with HA-Cdh1 (human), the binding result is listed as “no binding”.
Consider Fyn (from UniProt P06241 1-537), for which the binding entry with HA-Cdh1 (human) is on record as “no binding”.
As to “endogenous CRM1 (from UniProt O14980 1-1071)”, the binding entry in test [1] and in test [2] was “binds” each time.
Regarding HA-Cdh1 (from UniProt Q9UM11 1-496), the binding result with Flag-CRM1 (human) was “binds”.
Still for that read-out and setting: next, “HA-Y148E-Cdh1 (293T) (from UniProt Q9UM11 1-496)”: “binds”.

Values taken from publication PMC6697746.
